In publication PMC4336329 (PLoS ONE, 2015):
In all, about 310,000 compounds went through this assay and about 14,000 (4.5%) showed an effect of 50% or more. The effect is printed as a negative number. The list shows a part of the results.

molecular target: human ether-à-go-go-related gene (hERG) potassium channel (human, UniProt Q12809); test: primary screen, population patch clamp on CHO cells stably expressing hERG
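Also: peak tail current of the secondary pulse compared with the same well before compound.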

Chain of human ether-à-go-go-related gene (hERG) potassium channel (Q12809 whole entry, looked up): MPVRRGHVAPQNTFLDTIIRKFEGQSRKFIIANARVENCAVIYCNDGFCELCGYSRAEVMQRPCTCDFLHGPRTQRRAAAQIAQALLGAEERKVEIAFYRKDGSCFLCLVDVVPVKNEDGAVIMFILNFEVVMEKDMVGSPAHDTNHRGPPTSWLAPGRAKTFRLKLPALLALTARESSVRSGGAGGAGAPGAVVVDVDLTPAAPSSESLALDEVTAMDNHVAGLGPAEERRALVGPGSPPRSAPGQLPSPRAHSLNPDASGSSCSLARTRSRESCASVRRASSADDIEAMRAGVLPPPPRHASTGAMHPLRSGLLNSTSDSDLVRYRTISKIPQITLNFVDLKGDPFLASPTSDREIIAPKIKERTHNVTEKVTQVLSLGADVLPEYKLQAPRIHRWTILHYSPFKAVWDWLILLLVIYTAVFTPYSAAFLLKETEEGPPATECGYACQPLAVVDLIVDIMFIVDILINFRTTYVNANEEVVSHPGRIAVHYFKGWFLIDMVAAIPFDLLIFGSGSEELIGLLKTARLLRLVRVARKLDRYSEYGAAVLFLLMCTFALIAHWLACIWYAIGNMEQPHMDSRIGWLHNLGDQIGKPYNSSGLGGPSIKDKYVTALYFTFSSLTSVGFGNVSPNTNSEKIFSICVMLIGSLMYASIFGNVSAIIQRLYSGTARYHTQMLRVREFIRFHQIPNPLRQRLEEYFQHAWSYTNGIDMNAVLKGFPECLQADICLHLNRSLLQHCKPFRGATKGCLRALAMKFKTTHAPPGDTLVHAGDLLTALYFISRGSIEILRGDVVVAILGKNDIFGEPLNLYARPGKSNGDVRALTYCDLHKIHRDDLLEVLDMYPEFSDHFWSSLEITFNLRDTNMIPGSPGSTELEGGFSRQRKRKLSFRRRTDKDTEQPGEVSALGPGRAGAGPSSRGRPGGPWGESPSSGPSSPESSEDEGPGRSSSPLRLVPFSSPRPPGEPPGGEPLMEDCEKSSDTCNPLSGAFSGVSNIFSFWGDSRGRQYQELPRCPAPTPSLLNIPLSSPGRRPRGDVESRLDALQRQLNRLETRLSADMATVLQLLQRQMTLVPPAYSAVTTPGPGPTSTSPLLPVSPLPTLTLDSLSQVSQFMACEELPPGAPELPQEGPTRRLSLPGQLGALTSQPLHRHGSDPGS

| Structure (SMILES) | hERG current change (%, negative = inhibition) at 10uM |
| --- | --- |
| O=C(CCSc1ccc(Cl)cc1)N1CCN(c2ccc(O)cc2)CC1 | -23.8% |
| CNCc1ccccc1Sc1cccc2ccccc12.O=C(O)/C=C\C(=O)O | -45.4% |
| Cl.O=S(=O)(NCCN1CCOCC1)c1cccs1 | -4.07% |
| Cc1ccc(S(=O)(=O)Nc2nc3ccc(S(=O)(=O)N4CCCC4)cc3s2)cc1 | 14.6% |
| CCOC(=O)c1cc(CC)sc1N1C(=O)CC(Sc2ccccc2C(=O)O)C1=O (stereo not shown) | 11% |
| COc1ccccc1C(O)Cc1nc2ccccc2n1C (stereo not shown) | -1.56% |
| CCOc1ccccc1Nc1cc(C)c2cccc(C)c2n1 | 23.1% |
| CCCCn1c(=O)[nH]c(=O)c2c1nc(-c1ccccc1F)n2Cc1ccccc1OC | 11.5% |
| CS(=O)(=O)N1CCN(C(=O)c2csc3ccccc23)CC1 | 2.35% |
| Cc1cccc(C)c1OCC(=O)NCC1CCCO1 (stereo not shown) | 0.411% |
| COc1ccccc1NC(=O)c1ccc(C)c(S(=O)(=O)N2CCCCC2)c1 | -8.22% |
| COc1ccc(N/C(C)=C/C(=S)Nc2ccccc2)cc1 | -8.63% |
| O=C(NC1CCCC1)C1CCC(=O)N1CCc1ccccc1 (stereo not shown) | 10.5% |
| O=C(Nc1ccccc1F)c1ccccc1-c1ccc(C(F)(F)F)cc1 | -5.12% |
| CCn1c(CCNC(=O)c2cccs2)nnc1SCC(=O)Nc1nc(-c2ccccc2)cs1 | -52% |
| Nc1nc(N2CCN(c3ccc(F)cc3)CC2)n[nH]1 | 13.1% |
| OCCC1CN(Cc2cccc3nccnc23)CCN1C1CCCC1 (stereo not shown) | -4.4% |
| CO[C@@]1(NC(=O)CSCC#N)C(=O)N2C(C(=O)[O-])=C(CSc3nnnn3C)CS[C@@H]21.[Na+] | 4.09% |
| CCOc1ccc(N2C(=O)CC(N(CCc3ccc(OC)c(OC)c3)C(=O)/C=C/C(=O)O)C2=O)cc1 (stereo not shown) | 11% |
| COc1ccc(N2CC(NC(=O)N(C)CCC#N)CC2=O)cc1 (stereo not shown) | 8.4% |
| CC(Nc1cc(N2CCN(S(C)(=O)=O)CC2)ccc1[N+](=O)[O-])c1ccccc1 (stereo not shown) | -3.89% |
| CCOc1ccc(C(O)(c2ccccc2)C(CN2CCCC2)c2ccccc2)cc1.Cl (stereo not shown) | -34% |
| COc1ccc(OC)c(NC(=O)NCCCCc2ccccc2)c1 | 4.33% |
| CCCCn1c(S(=O)(=O)O)nc2ccccc21 | 9.47% |
| Cc1ccc(CN/C=C/C(=O)c2ccc(Br)cc2)cc1 | -8.5% |
